# Results from PubChem BioAssay AID504832 (National Center for Advancing Translational Sciences (NCATS), 2011).
# The campaign covered roughly 310,000 compounds. About 18,000 (5.8%) were called active. The shares of active, inactive and inconclusive entries below differ from those in the screen. The call rests on the fitted dose curve; in most records, active means well fitted inhibition curve with a large enough effect; inconclusive means small, poorly fitted or top-dose-only effect, or another doubt; inactive means no such curve, though single readings can be large or run the other way. Potencies of inconclusive entries are left out as doubtful fits.
# Assay: Primary qHTS for delayed death inhibitors of the malarial parasite plastid, 48 hour incubation
# Details: P. falciparum luciferase growth in erythrocytes; series mostly up to 28.7 µM; activity change, negative = inhibition: at the top concentration
# Outline: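 Compounds are pin-transferred into medium, infected erythrocytes (2% hematocrit, 0.1% parasitemia final) are added, and plates sit one parasite generation at 37 C in 5% CO2. Detection reagent is then added and luminescence measured.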
# On the % scale 0 is the no-effect control and ±100 the full control effect; potency means the concentration at half of the fitted maximal effect; tags describe the fitted curve by direction and shape.
Compound,Potency,"activity change, negative = inhibition"
O=C(CCN1CCN(Cc2ccccc2)CC1)Nc1ccccc1Cl,"inconclusive [inhibitor, partial curve, poor fit]",–
CC(/C=C1\SC(=S)N(CCC(=O)Nc2ccccc2O)C1=O)=C\c1ccccc1,"inconclusive [inhibitor, full curve, poor fit]",–
Cn1c(O)c(N=NC(=O)c2cc(-c3cccs3)nc3ccccc23)c2ccccc21,"inconclusive [inhibitor, single point]",–
c1ccc(CSc2nnc3ccc(-c4ccncc4)nn23)nc1,"inconclusive [inhibitor, partial curve, poor fit]",–
CCn1ccnc1CN(C)Cc1nc(-c2ccccc2)no1,–,inactive: 19.2%
COc1ccccc1NC(=O)CSc1nccn1Cc1ccccc1,"inconclusive [inhibitor, single point]",–
NC(=O)NC(=O)C(c1ccccc1)N1CCN(S(=O)(=O)Cc2ccccc2)CC1 (centres undefined),–,inactive: -4.08%
O=C(Cc1ccccc1)NNC(=O)c1cccs1,"inconclusive [inhibitor, full curve, poor fit]",–
COCCCNC(=O)C1CCN(C(=O)c2oc3cc4sc(N(C)C)nc4cc3c2C)CC1,–,inactive: 9.77%
O=[N+]([O-])c1cc([N+](=O)[O-])c(Oc2cccc(Cl)c2Cl)cc1NN1CCCCC1,–,inactive: -10.3%
CCOC(=O)c1sc2nc(SCC(=O)N(CC)CC)n(CCCN3CCCC3=O)c(=O)c2c1C,active: 2.08 µM,–
COc1ccc(CNCc2ccncc2)c(OC)c1,"inconclusive [inhibitor, full curve]",–
CC1Sc2ccc(S(=O)(=O)N3CCC(C(=O)N(C)Cc4ccccc4)CC3)cc2NC1=O (centres undefined),active: 9.28 µM,–
COC(=O)c1c(NC(=S)NN2CCN(C)CC2)sc2c1CCC(C)C2 (centres undefined),"inconclusive [inhibitor, single point]",–
O=C(NCCc1ccccc1)c1ccc2c(c1)N(Cc1ccccc1)C(=O)CS2=O (centres undefined),"inconclusive [inhibitor, partial curve, poor fit]",–
O=C(CN1CCN(S(=O)(=O)c2cccc(Cl)c2)CC1)N1CCCCC1,"inconclusive [inhibitor, single point]",–
N#CCCN(C(=O)COC(=O)c1ccc2c(=O)n3c(nc2c1)CCC3)c1ccc(F)cc1,–,inactive: -15%
COc1ccc([C@@H]2[C@@H]3C(=O)N(C(C)(C)C)C(=O)[C@@H]3[C@]3(Cc4ccccc4)C(=O)N(c4ccc(C(F)(F)F)cc4)C(=O)N23)cc1,"inconclusive [inhibitor, single point]",–
CCN1C(=O)[C@H]2[C@@H](c3ccc(-c4ccc(F)cc4)cc3)N[C@@](CC(C)C)(C(=O)OC)[C@H]2C1=O,active: 10.4 µM,–
Cc1ccnc(NC(=O)CCNC(=O)c2ccc(Cl)cc2)c1,–,inactive: -7.99%
CC1Cc2cc(/C(O)=C3/C(=O)C(=O)N(CCCn4ccnc4)C3c3ccc(Br)cc3)ccc2O1 (centres undefined),–,inactive: -6.51%
O=C(Nc1cc(Cl)ccc1O)c1cc(-c2ccco2)on1,"inconclusive [inhibitor, full curve]",–
Cn1c(SCC(=O)NCc2ccccc2)nnc1-c1ccc(NC(=O)CCc2ccccc2)cc1,"inconclusive [inhibitor, partial curve]",–

Compound,Potency,"activity change, negative = inhibition"
Cc1ccc(C(=O)Nc2ccc(CN3CCCCC3)cc2)c(C)c1,"inconclusive [inhibitor, single point]",–
CC1(C)CC(=O)C(C=Nc2ccc(C(=O)c3ccccc3)cc2N=CC2=C(O)CC(C)(C)CC2=O)=C(O)C1,"inconclusive [inhibitor, partial curve, poor fit]",–
COc1ccc(CNC(=O)COc2cc3c(c4oc(=O)cc(C)c24)CCC(C)(C)O3)cc1,"inconclusive [inhibitor, full curve, poor fit]",–
C=CCNC(=O)c1ccc2c(c1)N(CC)C(=O)c1ccccc1S2,"inconclusive [inhibitor, single point]",–
CC(C)(CNC(=O)CCNC(=O)c1ccc(Br)cc1)N1CCOCC1,"inconclusive [inhibitor, single point]",–
O=C1C(=O)c2ccccc2C([O-])=C1[n+]1ccccc1,active: 3.7 µM,–
COc1ccc(C(=O)N2CC3(CC(c4cccc(NC(=O)COc5ccc(Cl)cc5)c4)=NO3)C[C@@H]2C(N)=O)cc1 (some centres undefined),active: 10.4 µM,–
C=CCNC(=O)c1c[nH]c2ccc(S(=O)(=O)N(C)c3ccc(OCC)cc3)cc2c1=O,"inconclusive [inhibitor, partial curve]",–
O=C(NCCCn1ccnc1)C(=O)NCc1ccccc1,–,inactive: -13.3%
O=C(O)CCn1cc(C(=O)O)c(-c2ccccc2)n1,–,inactive: 7.37%
CC1(C)CC(=O)C2=C(C1)Oc1nc3ccccc3cc1C2C(C#N)C#N (centres undefined),active: 0.657 µM,–
Cc1ccc(C(=O)N/N=C/c2cc(Br)ccc2O)cn1,"inconclusive [inhibitor, full curve]",–
Oc1ccc(C2Nc3cccc4cccc(c34)N2)c(O)c1,active: 6.57 µM,–
O=C(CSc1nnc(Cc2ccccc2)n1Cc1ccco1)NC12CC3CC(CC(C3)C1)C2,"inconclusive [inhibitor, single point]",–
O=C(COc1ccc(S(=O)(=O)N2CCCC2)cc1Cl)NCc1ccccn1,"inconclusive [inhibitor, full curve, poor fit]",–
O=C(CCCC(=O)N/N=C\c1ccccn1)N/N=C\c1ccccn1,–,inactive: 17.8%
CN(Cc1nccs1)C(=O)C1CCC(=O)N(CCCc2ccccc2)C1 (centres undefined),–,inactive: 16.5%
CCC(CC)COC(=O)C1=C(C)NC(=O)NC1c1ccc(N(C)C)cc1 (centres undefined),–,inactive: 3.15%
COc1ccc(OCCC(=O)Nc2nccs2)cc1,–,inactive: 2.58%
O=C(N/C(=C\c1cccnc1)c1nc2ccccc2[nH]1)c1cccc(Br)c1,"inconclusive [inhibitor, partial curve, poor fit]",–
COc1ccc(-c2ccc([C@H]3[C@@H]4C=CCC[C@@]4(C)C(=O)N3Cc3ccccc3)c(F)c2)cc1OC,"inconclusive [inhibitor, partial curve, poor fit]",–
COc1cc(C(=O)N(C)CC2CCN(CCc3cccc(C(F)(F)F)c3)CC2)ccc1C,"inconclusive [inhibitor, partial curve, poor fit]",–
CCCCn1cnc2cc(C)c(C)cc21,"inconclusive [inhibitor, single point]",–

Compound,Potency,"activity change, negative = inhibition"
CCCCN(C(=O)/C=C/c1ccco1)c1c(N)n(CCC)c(=O)[nH]c1=O,"inconclusive [inhibitor, single point]",–
Cc1cc2c(NCc3ccccc3)ncnc2s1,"inconclusive [inhibitor, full curve, poor fit]",–
COc1ccccc1CNC(=O)COn1nnc2ccc(S(=O)(=O)N3CCOCC3)cc21,"inconclusive [inhibitor, single point]",–
CCOC(=O)CC1=C(C(=O)OCC)C(c2ccc(C)o2)C(C#N)=C(N)O1 (centres undefined),"inconclusive [inhibitor, partial curve, poor fit]",–
O=C(Nc1cccc2ccccc12)OC1C=CS(=O)(=O)C1 (centres undefined),–,inactive: -73.1%
CCCc1nc(SCC(=O)N2CCc3ccccc32)c2c(=O)n(C)c(=O)n(C)c2n1,–,inactive: 18.1%
Cn1nnc(NC(=O)c2ccc3ccccc3c2)n1,"inconclusive [inhibitor, single point]",–
O=C(/C=C/c1cn(-c2ccccc2)nc1-c1ccc2c(c1)OCCO2)NCCCN1CCOCC1,"inconclusive [inhibitor, single point]",–
Cc1sc(NC(=O)c2ccco2)c(C(c2cccnc2)N2CCN(CCO)CC2)c1C (centres undefined),"inconclusive [inhibitor, partial curve]",–
COc1ccc(C(=O)NCCCSC)cc1OC1CCN(C(C)C)CC1,"inconclusive [inhibitor, full curve, poor fit]",–
O=C(OC1CCOC1=O)c1ccccc1C(=O)c1ccc(Cl)c([N+](=O)[O-])c1 (centres undefined),"inconclusive [inhibitor, single point]",–
COc1ccc(S(=O)(=O)NCc2ccco2)cc1-c1nnc2c3ccccc3c(C)nn12,active: 11.7 µM,–
O=C(Nc1ccc(Cl)cc1F)c1ccccc1Br,–,inactive: 263%
COc1ccccc1OCCC(=O)OCC(=O)Nc1ccc(Br)cc1F,–,inactive: 13.7%
CCN(CC(=O)Nc1ccc2c(c1)OCCO2)S(=O)(=O)c1ccccc1,–,inactive: 41.3%
CCN1C(=O)CC(N2CCN(c3ccc(C(=O)c4ccccc4)cc3)CC2)C1=O (centres undefined),"inconclusive [inhibitor, single point]",–
CCCOC(=O)Nc1nc2ccccc2o1,–,inactive: 130%
CCN(CC)c1ccc(-n2cc3c(=O)n(C)c(=O)n(C)c3c2)cc1,"inconclusive [inhibitor, partial curve, poor fit]",–
O=C(NNC(=O)c1cc(Cl)ccc1[N+](=O)[O-])c1csc(N2CCOCC2)n1,–,inactive: -17.1%
Cc1cccc(N2CCN(C(=O)C3CCN(c4ncnc5c4nc4n5CCCCC4)CC3)CC2)c1C,–,inactive: -11.4%
CC(=O)c1cc(-c2ccccc2)n(CC(=O)NCc2cccs2)c1C,–,inactive: -4.03%
Cc1ccc(-c2nc(CS(=O)(=O)CC(=O)NCCN3CCCC3)c(C)o2)cc1,"inconclusive [inhibitor, single point]",–
COc1cc(/C=N/NC(=O)CCn2cnc(-c3ccccc3)c2-c2ccccc2)ccc1O,"inconclusive [inhibitor, partial curve, poor fit]",–
